The list shows a part of the results.
How the values were obtained:
Assay in all cases: glycan array binding signal (z-score within array); higher = stronger binding
Conditions in all cases: glycan notation: IUPAC condensed, linker removed; mutation: G182A
[1] = molecular target: Man(b1-4)GlcNAc
In short: (§1)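 From the Consortium for Functional Glycomics database, 3228 arrays were curated, keeping only those whose protein sequence was available. Binding is given as a within-array Z-score averaged across arrays sharing a protein sequence and across linkers. Negative Z-scores can be read as non-binding.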

[2] = molecular target: Neu5Ac(a2-3)Gal
In short: as §1

[3] = molecular target: Neu5Ac(a2-3)Gal(b1-3)GalNAc
In short: as §1

[4] = molecular target: Neu5Ac(a2-3)Gal(b1-3)GalNAc(b1-3)Gal(a1-4)Gal(b1-4)Glc
In short: as §1

[5] = molecular target: Neu5Ac(a2-3)Gal(b1-3)GalNAc(b1-4)[Neu5Ac(a2-3)]Gal(b1-4)Glc
In short: as §1

[6] = molecular target: Neu5Ac(a2-3)Gal(b1-3)GalNAc6S
In short: as §1

[7] = molecular target: Neu5Ac(a2-3)Gal(b1-3)GlcNAc
In short: as §1

[8] = molecular target: Neu5Ac(a2-3)Gal(b1-3)GlcNAc(b1-2)Man(a1-3)[Neu5Ac(a2-3)Gal(b1-3)GlcNAc(b1-2)Man(a1-6)]Man(b1-4)GlcNAc(b1-4)GlcNAc
In short: as §1

[9] = molecular target: Neu5Ac(a2-3)Gal(b1-3)GlcNAc(b1-3)Gal(b1-3)GlcNAc
In short: as §1

[10] = molecular target: Neu5Ac(a2-3)Gal(b1-3)GlcNAc(b1-3)Gal(b1-4)GlcNAc
In short: as §1

[11] = molecular target: Neu5Ac(a2-3)Gal(b1-3)GlcNAc(b1-3)GalNAc
In short: as §1

[12] = molecular target: Neu5Ac(a2-3)Gal(b1-3)GlcNAc6S
In short: as §1

[13] = molecular target: Neu5Ac(a2-3)Gal(b1-3)[Fuc(a1-4)]GlcNAc
In short: as §1

[14] = molecular target: Neu5Ac(a2-3)Gal(b1-3)[Fuc(a1-4)]GlcNAc(b1-3)Gal(b1-3)[Fuc(a1-4)]GlcNAc
In short: as §1

[15] = molecular target: Neu5Ac(a2-3)Gal(b1-3)[Fuc(a1-4)]GlcNAc(b1-3)Gal(b1-4)[Fuc(a1-3)]GlcNAc
In short: as §1

[16] = molecular target: Neu5Ac(a2-3)Gal(b1-3)[Neu5Ac(a2-3)Gal(b1-4)]GlcNAc
In short: as §1

[17] = molecular target: Neu5Ac(a2-3)Gal(b1-3)[Neu5Ac(a2-6)]GalNAc
In short: as §1

[18] = molecular target: Neu5Ac(a2-3)Gal(b1-4)Glc
In short: as §1

[19] = molecular target: Neu5Ac(a2-3)Gal(b1-4)GlcNAc
In short: as §1

[20] = molecular target: Neu5Ac(a2-3)Gal(b1-4)GlcNAc(b1-2)Man(a1-3)[GlcNAc(b1-2)Man(b1-4)GlcNAc(b1-2)Man(a1-6)]Man(b1-4)GlcNAc(b1-4)GlcNAc
In short: as §1

[21] = molecular target: Neu5Ac(a2-3)Gal(b1-4)GlcNAc(b1-2)Man(a1-3)[Neu5Ac(a2-6)Gal(b1-4)GlcNAc(b1-2)Man(a1-6)]Man(b1-4)GlcNAc(b1-4)GlcNAc
In short: as §1

[22] = molecular target: Neu5Ac(a2-3)Gal(b1-4)GlcNAc(b1-3)Gal(b1-3)GlcNAc
In short: as §1

[23] = molecular target: Neu5Ac(a2-3)Gal(b1-4)GlcNAc(b1-3)Gal(b1-4)GlcNAc
In short: as §1

[24] = molecular target: Neu5Ac(a2-3)Gal(b1-4)GlcNAc(b1-3)Gal(b1-4)GlcNAc(b1-3)Gal(b1-4)GlcNAc
In short: as §1

[25] = molecular target: Neu5Ac(a2-3)Gal(b1-4)GlcNAc(b1-3)Gal(b1-4)[Fuc(a1-3)]GlcNAc
In short: as §1

[26] = molecular target: Neu5Ac(a2-3)Gal(b1-4)GlcNAc(b1-3)GalNAc
In short: as §1

[27] = molecular target: Neu5Ac(a2-3)Gal(b1-4)GlcNAc(b1-6)[Gal(b1-3)]GalNAc
In short: as §1

[28] = molecular target: Neu5Ac(a2-3)Gal(b1-4)GlcNAc(b1-6)[Neu5Ac(a2-3)Gal(b1-3)]GalNAc
In short: as §1

[29] = molecular target: Neu5Ac(a2-3)Gal(b1-4)GlcNAc6S
In short: as §1

[30] = molecular target: Neu5Ac(a2-3)Gal(b1-4)[Fuc(a1-3)]GlcNAc
In short: as §1

[31] = molecular target: Neu5Ac(a2-3)Gal(b1-4)[Fuc(a1-3)]GlcNAc(b1-3)Gal
In short: as §1

[32] = molecular target: Neu5Ac(a2-3)Gal(b1-4)[Fuc(a1-3)]GlcNAc(b1-3)Gal(b1-4)GlcNAc
In short: as §1

[33] = molecular target: Neu5Ac(a2-3)Gal(b1-4)[Fuc(a1-3)]GlcNAc(b1-3)Gal(b1-4)[Fuc(a1-3)]GlcNAc(b1-3)Gal(b1-4)[Fuc(a1-3)]GlcNAc
In short: as §1

[34] = molecular target: Neu5Ac(a2-3)Gal(b1-4)[Fuc(a1-3)]GlcNAc(b1-3)GalNAc
In short: as §1

[35] = molecular target: Neu5Ac(a2-3)Gal(b1-4)[Fuc(a1-3)]GlcNAc(b1-6)[Gal(b1-3)]GalNAc
In short: as §1

[36] = molecular target: Neu5Ac(a2-3)Gal(b1-4)[Fuc(a1-3)]GlcNAc(b1-6)[Neu5Ac(a2-3)Gal(b1-3)]GalNAc
In short: as §1

[37] = molecular target: Neu5Ac(a2-3)Gal(b1-4)[Fuc(a1-3)]GlcNAc6S
In short: as §1

[38] = molecular target: Neu5Ac(a2-3)Gal6S(b1-4)GlcNAc
In short: as §1

B1: Gal 3 (Homo sapiens), P17931 (protein)
chain: MADNFSLHDALSGSGNPNPQGWPGAWGNQPAGAGGYPGASYPGAYPGQAPPGAYPGQAPPGAYHGAPGAYPGAPAPGVYPGPPSGPGAYPSSGQPSAPGAYPATGPYGAPAGPLIVPYNLPLPGGVVPRMLITILGTVKPNANILDFQRGNDVAFHFNPRFNENNRRVIVCNTKLDNNWAREERQSVFPFESGKPFKIQVLVEPDHFKVAVNDAHLLQYNHRVKKLNEISKLGISGDIDLTSASYTMI
[1]
  glycan array binding signal (z-score): -0.165
[2]
  glycan array binding signal (z-score): -0.155
[3]
  glycan array binding signal (z-score): -0.183
[4]
  glycan array binding signal (z-score): -0.191
[5]
  glycan array binding signal (z-score): -0.187
[6]
  glycan array binding signal (z-score): -0.18
[7]
  glycan array binding signal (z-score): -0.159
[8]
  glycan array binding signal (z-score): -0.194
[9]
  glycan array binding signal (z-score): -0.067
[10]
  glycan array binding signal (z-score): -0.013
[11]
  glycan array binding signal (z-score): -0.164
[12]
  glycan array binding signal (z-score): -0.193
[13]
  glycan array binding signal (z-score): -0.194
[14]
  glycan array binding signal (z-score): -0.187
[15]
  glycan array binding signal (z-score): -0.176
[16]
  glycan array binding signal (z-score): -0.194
[17]
  glycan array binding signal (z-score): -0.189
[18]
  glycan array binding signal (z-score): -0.187
[19]
  glycan array binding signal (z-score): -0.165
[20]
  glycan array binding signal (z-score): -0.168
[21]
  glycan array binding signal (z-score): -0.168
[22]
  glycan array binding signal (z-score): -0.194
[23]
  glycan array binding signal (z-score): -0.15
[24]
  glycan array binding signal (z-score): 3.32
[25]
  glycan array binding signal (z-score): -0.196
[26]
  glycan array binding signal (z-score): -0.187
[27]
  glycan array binding signal (z-score): -0.173
[28]
  glycan array binding signal (z-score): -0.181
[29]
  glycan array binding signal (z-score): -0.107
[30]
  glycan array binding signal (z-score): -0.155
[31]
  glycan array binding signal (z-score): -0.192
[32]
  glycan array binding signal (z-score): -0.15
[33]
  glycan array binding signal (z-score): -0.194
[34]
  glycan array binding signal (z-score): -0.162
[35]
  glycan array binding signal (z-score): -0.188
[36]
  glycan array binding signal (z-score): -0.188
[37]
  glycan array binding signal (z-score): -0.196
[38]
  glycan array binding signal (z-score): -0.189

— the supplement of paper PMC8728848
